These results are taken from article PMC13263796.

This assay has as its target T1, Atg9-PA (S. cerevisiae) (UniProt Q12142).
T1 sequence: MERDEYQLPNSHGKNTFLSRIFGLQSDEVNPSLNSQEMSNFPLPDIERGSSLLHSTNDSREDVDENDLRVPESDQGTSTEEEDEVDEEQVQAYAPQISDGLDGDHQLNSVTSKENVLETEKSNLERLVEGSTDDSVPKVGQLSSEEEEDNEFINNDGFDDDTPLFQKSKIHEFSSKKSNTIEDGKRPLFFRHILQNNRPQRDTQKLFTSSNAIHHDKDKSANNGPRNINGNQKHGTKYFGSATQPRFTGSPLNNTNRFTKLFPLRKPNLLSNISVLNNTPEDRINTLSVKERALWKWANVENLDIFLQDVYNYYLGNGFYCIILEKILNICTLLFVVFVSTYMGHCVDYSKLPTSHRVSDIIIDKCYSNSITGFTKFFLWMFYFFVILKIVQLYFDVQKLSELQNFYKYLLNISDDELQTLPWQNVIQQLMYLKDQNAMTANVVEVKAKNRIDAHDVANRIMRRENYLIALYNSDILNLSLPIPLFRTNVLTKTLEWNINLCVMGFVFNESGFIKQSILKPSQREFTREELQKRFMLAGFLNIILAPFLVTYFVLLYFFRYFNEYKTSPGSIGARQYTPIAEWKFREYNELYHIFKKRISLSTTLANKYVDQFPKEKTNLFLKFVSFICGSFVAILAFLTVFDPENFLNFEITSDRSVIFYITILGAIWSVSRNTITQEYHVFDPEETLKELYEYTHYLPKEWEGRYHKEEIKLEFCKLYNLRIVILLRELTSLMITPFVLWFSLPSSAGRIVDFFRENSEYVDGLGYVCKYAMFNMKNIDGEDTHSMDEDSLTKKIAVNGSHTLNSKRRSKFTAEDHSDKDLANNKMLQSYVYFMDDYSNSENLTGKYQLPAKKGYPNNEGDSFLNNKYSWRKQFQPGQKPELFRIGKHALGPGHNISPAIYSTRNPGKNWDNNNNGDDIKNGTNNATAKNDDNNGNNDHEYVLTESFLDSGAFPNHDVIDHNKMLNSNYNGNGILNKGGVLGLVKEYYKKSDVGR
Kind of assay: co-IP; overexpressed GFP-Atg11 co-precipitated by overexpressed Atg9-PA from yeast in growing conditions (SMD -ura -trp, log phase); washes at 4°C; blots probed with anti-GFP.

No constants are given. Whether binding was seen depends on the method and setting. In cells and extracts the contact can be indirect. Some binding calls cover weakened binding; strength is not graded here. Sequences can lack the tags named with a protein.

B1: GFP-atg11ΔCC2 (protein, UniProt Q12527)
chain: MADADEYSTAPTQQEITPLQTTATIINAISGECITTNVDFFVSLDKFKQFIARKWKIPPDQLLILLPYGNKLKPSMFKELLINRSFTLNDFYVYDRRLFSLVSKPTPTNLLTSKDSNPMNSPNSNDLTETLEYLIKNSHISQYQGSDTIMIKPMPSPLEDADVDLSRLNYHSVTSLLTTNLGWLSALEIDVHYFKSLIPDIIAHIKRIFDGLTVCSQYLKLYCFDVESLYNSNVQFLNQLVDNGMTSKWEKCFNDTLSKLTALEGDSLQKFINIESLLENEKSVKILNHSINGKLNKIKREIDENASFRDIITVNIDRLRQMFTPNESKFELEDQMAESFEVLVSEMRTRSRNVLDKEEEEFNSQEFLKSMNVMLEKDKKESVKTLFTISQALYSQIGELIDLKKSLQKHAVAILGNIAFTQMEILGIKRLLLNECNKDLELYKKYEVEFAQVEDLPLIYGLYLIEKYRRLSWFQQILSFISNFNQDLELFKQNELRTRNKWVKNFGSIATVFCEDLLSSSDFKRLNEYHSHTSPPIIDLLSKTLFETKRFHIIYSNFKNNNNNSSNGNSISPEGSIALKSDDVVKGYKTRIKKLESLLHEFQYSDIGHWPQGVLNTHLKPFRGSATSINKKKFLGASVLLEPANISEVNIDSVSQANNHQIQELESNVDDLLHQLQLLKEENNRKSMQISEMGKKISDLEVEKTAYRETLTNLNQELARLTNEEQSHRTEIFTLNASFKKQLNDIISQDNEKIEKLTGDYDDVSKSRERLQMDLDESNKKHEQEVNLLKADIERLGKQIVTSEKSYAETNSSSMEKGEKFETIPLAEDPGRENQISAYTQTLQDRIFDIISTNIFILENIGLLLTFDNNNNIQIRRVKGLKKGTAQSNILDESTQMLDAHDNSLIKSPVFQKLKDEYELIKSVANGSEKDTQQSIFLGNITQLYDNKLYEVAVIRRFKDIETLAKKLTKENKIKRTLLERFQREKVTLRNFQIGDLALFLPTRENVNSVGSMSSSTSSLSSSFSSVDLSTPPPLDAMSIQSSPSVIHSNVINQASISGRDKNKLMRPWAAFTAFEESTRYFLKDEKGLTKGKEWFVGRIVTLEHFVADSPSNNPFRLPKGSVWFQVTAVVVSYQGV
Turning to B1, the binding entry is on record as “no binding”.

B2: GFP-Atg11 IA3 (protein, UniProt Q12527 1-575; P01094 2-53; Q12527 628-1178)
chain: MADADEYSTAPTQQEITPLQTTATIINAISGECITTNVDFFVSLDKFKQFIARKWKIPPDQLLILLPYGNKLKPSMFKELLINRSFTLNDFYVYDRRLFSLVSKPTPTNLLTSKDSNPMNSPNSNDLTETLEYLIKNSHISQYQGSDTIMIKPMPSPLEDADVDLSRLNYHSVTSLLTTNLGWLSALEIDVHYFKSLIPDIIAHIKRIFDGLTVCSQYLKLYCFDVESLYNSNVQFLNQLVDNGMTSKWEKCFNDTLSKLTALEGDSLQKFINIESLLENEKSVKILNHSINGKLNKIKREIDENASFRDIITVNIDRLRQMFTPNESKFELEDQMAESFEVLVSEMRTRSRNVLDKEEEEFNSQEFLKSMNVMLEKDKKESVKTLFTISQALYSQIGELIDLKKSLQKHAVAILGNIAFTQMEILGIKRLLLNECNKDLELYKKYEVEFAQVEDLPLIYGLYLIEKYRRLSWFQQILSFISNFNQDLELFKQNELRTRNKWVKNFGSIATVFCEDLLSSSDFKRLNEYHSHTSPPNEDEEDENENSIANYRQDLVKVSQAIDNYMTQIKETDVSNTDQQKVSEIFQSSKEKLQGDAKVVSDAFKKMASQDKDGKTTDADESEKHNYGYKTRIKKLESLLHEFQYSDIGHWPQGVLNTHLKPFRGSATSINKKKFLGASVLLEPANISEVNIDSVSQANNHQIQELESNVDDLLHQLQLLKEENNRKSMQISEMGKKISDLEVEKTAYRETLTNLNQELARLTNEEQSHRTEIFTLNASFKKQLNDIISQDNEKIEKLTGDYDDVSKSRERLQMDLDESNKKHEQEVNLLKADIERLGKQIVTSEKSYAETNSSSMEKGEKFETIPLAEDPGRENQISAYTQTLQDRIFDIISTNIFILENIGLLLTFDNNNNIQIRRVKGLKKGTAQSNILDESTQMLDAHDNSLIKSPVFQKLKDEYELIKSVANGSEKDTQQSIFLGNITQLYDNKLYEVAVIRRFKDIETLAKKLTKENKIKRTLLERFQREKVTLRNFQIGDLALFLPTRENVNSVGSMSSSTSSLSSSFSSVDLSTPPPLDAMSIQSSPSVIHSNVINQASISGRDKNKLMRPWAAFTAFEESTRYFLKDEKGLTKGKEWFVGRIVTLEHFVADSPSNNPFRLPKGSVWFQVTAVVVSYQGV
For B2, the binding entry is given as “binds”.

B3: GFP-Atg11 YDL (protein, UniProt Q12527 1-1178)
chain: MADADEYSTAPTQQEITPLQTTATIINAISGECITTNVDFFVSLDKFKQFIARKWKIPPDQLLILLPYGNKLKPSMFKELLINRSFTLNDFYVYDRRLFSLVSKPTPTNLLTSKDSNPMNSPNSNDLTETLEYLIKNSHISQYQGSDTIMIKPMPSPLEDADVDLSRLNYHSVTSLLTTNLGWLSALEIDVHYFKSLIPDIIAHIKRIFDGLTVCSQYLKLYCFDVESLYNSNVQFLNQLVDNGMTSKWEKCFNDTLSKLTALEGDSLQKFINIESLLENEKSVKILNHSINGKLNKIKREIDENASFRDIITVNIDRLRQMFTPNESKFELEDQMAESFEVLVSEMRTRSRNVLDKEEEEFNSQEFLKSMNVMLEKDKKESVKTLFTISQALYSQIGELIDLKKSLQKHAVAILGNIAFTQMEILGIKRLLLNECNKDLELYKKYEVEFAQVEDLPLIYGLYLIEKARRLSWFQQILSFISNFNQDLELFKQNELRTRNKWVKNFGSIATVFCEAALSSSDFKRLNEYHSHTSPPNEDEEDENENSIANYRQDLVKVSQAIDNYMTQIKETDVSEPIIDLLSKTLFETKRFHIIYSNFKNNNNNSSNGNSISPEGSIALKSDDVVKGYKTRIKKLESLLHEFQYSDIGHWPQGVLNTHLKPFRGSATSINKKKFLGASVLLEPANISEVNIDSVSQANNHQIQELESNVDDLLHQLQLLKEENNRKSMQISEMGKKISDLEVEKTAYRETLTNLNQELARLTNEEQSHRTEIFTLNASFKKQLNDIISQDNEKIEKLTGDYDDVSKSRERLQMDLDESNKKHEQEVNLLKADIERLGKQIVTSEKSYAETNSSSMEKGEKFETIPLAEDPGRENQISAYTQTLQDRIFDIISTNIFILENIGLLLTFDNNNNIQIRRVKGLKKGTAQSNILDESTQMLDAHDNSLIKSPVFQKLKDEYELIKSVANGSEKDTQQSIFLGNITQLYDNKLYEVAVIRRFKDIETLAKKLTKENKIKRTLLERFQREKVTLRNFQIGDLALFLPTRENVNSVGSMSSSTSSLSSSFSSVDLSTPPPLDAMSIQSSPSVIHSNVINQASISGRDKNKLMRPWAAFTAFEESTRYFLKDEKGLTKGKEWFVGRIVTLEHFVADSPSNNPFRLPKGSVWFQVTAVVVSYQGV
With B3, the binding result was “binds”.

B4: GFP-Atg11 DLL (protein, UniProt Q12527 1-1178)
chain: MADADEYSTAPTQQEITPLQTTATIINAISGECITTNVDFFVSLDKFKQFIARKWKIPPDQLLILLPYGNKLKPSMFKELLINRSFTLNDFYVYDRRLFSLVSKPTPTNLLTSKDSNPMNSPNSNDLTETLEYLIKNSHISQYQGSDTIMIKPMPSPLEDADVDLSRLNYHSVTSLLTTNLGWLSALEIDVHYFKSLIPDIIAHIKRIFDGLTVCSQYLKLYCFDVESLYNSNVQFLNQLVDNGMTSKWEKCFNDTLSKLTALEGDSLQKFINIESLLENEKSVKILNHSINGKLNKIKREIDENASFRDIITVNIDRLRQMFTPNESKFELEDQMAESFEVLVSEMRTRSRNVLDKEEEEFNSQEFLKSMNVMLEKDKKESVKTLFTISQALYSQIGELIDLKKSLQKHAVAILGNIAFTQMEILGIKRLLLNECNKDLELYKKYEVEFAQVEDLPLIYGLYLIEKYRRLSWFQQILSFISNFNQDLELFKQNELRTRNKWVKNFGSIATVFCEAALSSSDFKRANEYHSHTSPPNEDEEDENENSIANYRQDLVKVSQAIDNYMTQIKETDVSEPIIDLLSKTLFETKRFHIIYSNFKNNNNNSSNGNSISPEGSIALKSDDVVKGYKTRIKKLESLLHEFQYSDIGHWPQGVLNTHLKPFRGSATSINKKKFLGASVLLEPANISEVNIDSVSQANNHQIQELESNVDDLLHQLQLLKEENNRKSMQISEMGKKISDLEVEKTAYRETLTNLNQELARLTNEEQSHRTEIFTLNASFKKQLNDIISQDNEKIEKLTGDYDDVSKSRERLQMDLDESNKKHEQEVNLLKADIERLGKQIVTSEKSYAETNSSSMEKGEKFETIPLAEDPGRENQISAYTQTLQDRIFDIISTNIFILENIGLLLTFDNNNNIQIRRVKGLKKGTAQSNILDESTQMLDAHDNSLIKSPVFQKLKDEYELIKSVANGSEKDTQQSIFLGNITQLYDNKLYEVAVIRRFKDIETLAKKLTKENKIKRTLLERFQREKVTLRNFQIGDLALFLPTRENVNSVGSMSSSTSSLSSSFSSVDLSTPPPLDAMSIQSSPSVIHSNVINQASISGRDKNKLMRPWAAFTAFEESTRYFLKDEKGLTKGKEWFVGRIVTLEHFVADSPSNNPFRLPKGSVWFQVTAVVVSYQGV
Regarding B4, the binding entry is “binds”.
